{
  "source": "the supplement of paper PMC12632987",
  "binders": {"B1": {"name": "LC3A_free_0_2098 (protein)", "chain": "TTVVVEVVAISEEKLPPEDVEKVLEELNELAERIEKEKGWETEVEHAEIDGRNVFTLTVRSEDATIDEGLEIADEIADRVEEIFEELGAEVTIYESVYEE"}, "B2": {"name": "LC3A_28_1158 (protein)", "chain": "SSIEKEIEEAKKKLEEAIAAGKDEVIVIKVDGTATQEDIEKLIKALEELAKLGEEHGVTSIIIDVDKDVKQEHIDKIAKAAEEIEKKYPKINIIIALSDE"}, "B3": {"name": "LC3A_3_1873 (protein)", "chain": "LEEELEETLAALRAAGASEETLELFRRNMELLRERGYEEAARTFIEEMRELLGAPAELLLDFAREVLELLENNDLSEEELIKEIREIARLTRNEAEIEEL"}, "B4": {"name": "LC3A_74_2075 (protein)", "chain": "KLTPEESETILEGLAIAELARIKAEEDPSRREELLKAAEELRELAKEIIKKAGLDEELYESGGEVLALLLDDKEKLSVEEVLKRLKEKIEELKKILKKLE"}, "B5": {"name": "LC3A_132_261 (protein)", "chain": "MEELKEEALKELKELLDKIVEALQNGEDPWPLIKQLEEEAEKYAEKLSLEETEELVEESEEYAEKLFEEKLDPNDEEARRALDIIEMLLEGVLIEKELKE"}, "B6": {"name": "LC3A_23_633 (protein)", "chain": "MYRLEITIDLVGEKEKVEKAVEELIKHIKEVAKEKGATIKKLEVEIIEENDENGKTTFATINVVLEAETKEKLQAVADAITDKVEELGVSAIISVEITKL"}, "B7": {"name": "LC3A_28_1226 (protein)", "chain": "SHIEEEIEKAEKEAEEAKERGEEALIEVEITGEDTLEDVEYLMEKLEEIVEKYKDLPAISIVINLSGDVTQEQIDAAAEGGERIEEKFPNVTVIIALDEE"}, "B8": {"name": "LC3A_28_1082 (protein)", "chain": "SAVDAQIAAALAALRAAKAAGEEALLTLTLTEDATQEDVDRLIAGLEEIAELARDAARVTVVIDLDGKIPQEHIDRIADAAERIEERVPNVTVIIALDEE"}, "B9": {"name": "LC3A_28_1069 (protein)", "chain": "SHIDEQLEKALEEARKAKERGEEALITLTIDENSTEEDVEKVLETMREIAEITKDLPSTTIIVDVNNKNQEEVTQKISETGDELEKEYPHLNVIIALSEE"}, "B10": {"name": "LC3A_102_145 (protein)", "chain": "DQLEQLEKLRKKAEEEAKKIAKKIEKEDPERAKEILEILLTAIDALFTNARTQITHGFEDIEADAIFLDALDKLKKLGDKEGVKLLEKTKKEADELVKKA"}, "B11": {"name": "LC3A_45_1984 (protein)", "chain": "MYLATIDLLVPRELAEEALELTKEEAEELQEELGDELEVDFETLERSYEETKDEEDVYLRLNITHPDKDVALDAADEIVDDLEEALGGRVAAIISVKEVP"}, "B12": {"name": "LC3A_3_1693 (protein)", "chain": "MDELVKETLEVAKENGWSEEALEALKKLLDALKARGYEEAIKTLLEKLKELKDASSEDIKDMFLELLHLLETENLNEEEITEAIKEEARVLKSAKEIEEL"}, "B13": {"name": "LC3A_3_1588 (protein)", "chain": "SAELVEAQLERLRAAGLSPEVLAAARRVLEALAARGFEEAIKVLTEELLRLRDVDPAVLLAMLDDILHAVETEDLDEEEIIKLIKEEARVARLEAEIEEL"}, "B14": {"name": "LC3A_3_1832 (protein)", "chain": "LEEEREETIELLKEAGHSEETIEAFRETLELLLERGYEEAAKTLLELVREAVHLPSELLLEALKEVKEAILENDWSEEELTEKIKEIFNLYRNEYEIEEL"}, "B15": {"name": "LC3A_17_565 (protein)", "chain": "MEELRKEIEELIKELEELIKILAKEDPEAAKKVKELLEKAKKLLEEGDLRGAAEELEKAFRLAADRFEELSEKTNGKYANEEMLANGLELEAIGIIEKLE"}, "B16": {"name": "LC3A_3_1704 (protein)", "chain": "MEELLKEAEEILKKHGKSEETIKAALEALKALLERGYEEAAKELLELLKEAGDLSDEILLWFFEEVKEVVERPDLTEEEVIEEIKRLWQIAKNDQEIEEL"}, "B17": {"name": "LC3A_free_46_2336 (protein)", "chain": "YEVDVDIALRAAPREEIEETVERIKERFEEIAKKHNAEIEIDVEYYENEDGTWIAFIDIDITTEDKETAEKVAQEVSDAIDEIDEETGLVGMFSIEISEE"}, "B18": {"name": "LC3A_28_1182 (protein)", "chain": "SALEKALKAALAKAKEAAAKGEATVITITVPGTANEEDIKRVIKTMEEIAEILKDIPGSAIIIDLVGGVKEEHQKRLAEKAEEIEKKYPNITVIIALDDE"}, "B19": {"name": "LC3A_free_46_2311 (protein)", "chain": "VKAEITIDLLHDDEEVLKKAVEEIVKAIKEIAKEYGLEVEIEVSFSKDPDGSHFAEINITLKGETKEKLEAAVNKIIDEIDKIAEKYDVSYIISVEIEEE"}, "B20": {"name": "LC3A_free_39_2272 (protein)", "chain": "SEEEVEEIVEELEELLAENPEVSEEVREELLEIARENPEVGRVLAEHMRQALEEGRDVAALAEAAVKTYKELKAAGKSEEEITEEVDLVAAEHVNLIPLD"}, "B21": {"name": "LC3A_28_903 (protein)", "chain": "SPALESAEKALKEVKKAVAAGNQEPLVLEVKAPSTQEDVDKLLKLLEEIAEEASKLKGVSIIIDIDESVSQENRDRIIDKAEELEEKYPNVTIIIALPES"}, "B22": {"name": "LC3A_3_1484 (protein)", "chain": "MEEVIKETEEALKKAGKSEETIKAAREFLERLKEAGLEEAAKEMAEVIKEALDRPSDDLLKVLQAALAELKAIPNPTEEDAKEIVKETKLAFEIEELEEE"}, "B23": {"name": "LC3A_28_1180 (protein)", "chain": "SELEKSIEEALKEAEKAKKAGEPTVITINVPGDVTEEETERVIEAMEKIAELLKDIPGSAIVINVDSGVSQEHLDRILEKAEEIEKKYPNVTVIIALDEE"}, "B24": {"name": "LC3A_3_1460 (protein)", "chain": "AEELIKEAREILKKQGASEETIKAAEELLKELAKKGYLEAMKTVVELLKEMKGVSSEILLETFKELLEIVKTEDLSEEEIIKKIKEEFAAAKSENEIIEL"}, "B25": {"name": "LC3A_3_1477 (protein)", "chain": "MEKEKEEAIKLLKEAGWSEETIKAFQEALDKLKELGFEEAAKTLIKQAKKLADLPDELALDFFKEVLAAIDELKDDEEALIKEIESIAAATLSEGEIIEL"}, "B26": {"name": "LC3A_45_1936 (protein)", "chain": "MYKATIDVLVPKELAEKAYNLIKEEGKELEKEYGDRIKVDFEKLEKSYEETKNEEDVYLELEIYADDEQLALDAAVRIVDRLEEELNGKAAAIISVEKLP"}, "B27": {"name": "LC3A_free_39_2242 (protein)", "chain": "SEEEEEEAKKEILELAKEEGEEAKKLAEKLLKILEGYPEAVKELLKLLKELKKEGGDVLEALRRALEVAERLQAEGKSQEEIAKAIIEELKDELNLIPLD"}, "B28": {"name": "LC3A_free_39_2276 (protein)", "chain": "SAAERAAALAAAEALAASLSPEGAALLRRLLARFADDPEAVRRIVAALERAREEGADMLEILRRALAVVDAGEAAGLSREEIAERVLAEIEDLINLQPLD"}, "B29": {"name": "LC3A_3_1384 (protein)", "chain": "AEERIERTLERLREAGHSEETIEAARRAAEALLEKGYEEALETFLELVEELIHLPDEQLLALFAEVLELIETEDLDEETLTERIKEIATVFKNESEIIEL"}},
  "note": "The full ranking holds about 2,300 sequences; the median of “median log2 fold change of GCK-ALFA target abundance (FLAG IP / Myc IP barcode read proportion)” is about 0.095, and the lowest 2% start at about -0.47. This is one part of the list.",
  "data": [
    {"biological_target": "MAP1LC3A, Q9H492", "test": "median log2 fold change of GCK-ALFA target abundance (FLAG IP / Myc IP barcode read proportion) (log2 ratio); each designed protein is fused to an ALFA-tag nanobody in HEK293 cells to bring the named protein to FLAG-tagged glucokinase (GCK); Myc marks an untargeted standard; higher = target protein stabilised (more abundant)", "details": "target protein: 3xFLAG-MCP-GCK-ALFA reporter; HEK293 landing pad (RPLP)", "method_in_brief": "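Binders fused to an ALFA nanobody were recombined as a library into HEK293 landing-pad cells, which were induced with 2 μg mL^−1 doxycycline and then transfected to express a FLAG-tagged target and a Myc-tagged standard. After 48 h, circular RNA barcodes recovered by anti-FLAG and anti-Myc immunoprecipitation of lysates were reverse transcribed, amplified and sequenced. Each binder's target abundance is the median log2 ratio of FLAG to Myc barcode read proportions, from barcodes present at ≥10^−7 in both replicates, binders carrying ≥3 barcodes per replicate, a 10^−6 pseudocount and pooled replicates.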", "values": [
      {"binder": "B1", "median log2 fold change": 0.28},
      {"binder": "B2", "median log2 fold change": 0.187},
      {"binder": "B3", "median log2 fold change": 0.235},
      {"binder": "B4", "median log2 fold change": -0.0499},
      {"binder": "B5", "median log2 fold change": -0.311},
      {"binder": "B6", "median log2 fold change": -0.00566},
      {"binder": "B7", "median log2 fold change": 0.0349},
      {"binder": "B8", "median log2 fold change": 0.081},
      {"binder": "B9", "median log2 fold change": -0.322},
      {"binder": "B10", "median log2 fold change": 0.167},
      {"binder": "B11", "median log2 fold change": -0.416},
      {"binder": "B12", "median log2 fold change": 0.378},
      {"binder": "B13", "median log2 fold change": 0.115},
      {"binder": "B14", "median log2 fold change": 0.178},
      {"binder": "B15", "median log2 fold change": 0.105},
      {"binder": "B16", "median log2 fold change": 0.397},
      {"binder": "B17", "median log2 fold change": -0.113},
      {"binder": "B18", "median log2 fold change": 0.104},
      {"binder": "B19", "median log2 fold change": 0.0722},
      {"binder": "B20", "median log2 fold change": 0.253},
      {"binder": "B21", "median log2 fold change": -0.303},
      {"binder": "B22", "median log2 fold change": 0.231},
      {"binder": "B23", "median log2 fold change": -0.0876},
      {"binder": "B24", "median log2 fold change": 0.182},
      {"binder": "B25", "median log2 fold change": 0.203},
      {"binder": "B26", "median log2 fold change": -0.132},
      {"binder": "B27", "median log2 fold change": 0.2},
      {"binder": "B28", "median log2 fold change": 0.252},
      {"binder": "B29", "median log2 fold change": 0.205}
    ]}
  ]
}
